Among all 310,000 compounds or so, about 14,000 (4.5%) showed an effect of 50% or more. Effects have a minus sign here. This is one part of the list.
Biological target: human ether-à-go-go-related gene (hERG) potassium channel (human, UniProt Q12809)
Assay: primary screen, population patch clamp on CHO cells stably expressing hERG
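Further: peak tail current of the secondary pulse compared with the same well before compound.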

Sequence of human ether-à-go-go-related gene (hERG) potassium channel (Q12809 whole entry, looked up): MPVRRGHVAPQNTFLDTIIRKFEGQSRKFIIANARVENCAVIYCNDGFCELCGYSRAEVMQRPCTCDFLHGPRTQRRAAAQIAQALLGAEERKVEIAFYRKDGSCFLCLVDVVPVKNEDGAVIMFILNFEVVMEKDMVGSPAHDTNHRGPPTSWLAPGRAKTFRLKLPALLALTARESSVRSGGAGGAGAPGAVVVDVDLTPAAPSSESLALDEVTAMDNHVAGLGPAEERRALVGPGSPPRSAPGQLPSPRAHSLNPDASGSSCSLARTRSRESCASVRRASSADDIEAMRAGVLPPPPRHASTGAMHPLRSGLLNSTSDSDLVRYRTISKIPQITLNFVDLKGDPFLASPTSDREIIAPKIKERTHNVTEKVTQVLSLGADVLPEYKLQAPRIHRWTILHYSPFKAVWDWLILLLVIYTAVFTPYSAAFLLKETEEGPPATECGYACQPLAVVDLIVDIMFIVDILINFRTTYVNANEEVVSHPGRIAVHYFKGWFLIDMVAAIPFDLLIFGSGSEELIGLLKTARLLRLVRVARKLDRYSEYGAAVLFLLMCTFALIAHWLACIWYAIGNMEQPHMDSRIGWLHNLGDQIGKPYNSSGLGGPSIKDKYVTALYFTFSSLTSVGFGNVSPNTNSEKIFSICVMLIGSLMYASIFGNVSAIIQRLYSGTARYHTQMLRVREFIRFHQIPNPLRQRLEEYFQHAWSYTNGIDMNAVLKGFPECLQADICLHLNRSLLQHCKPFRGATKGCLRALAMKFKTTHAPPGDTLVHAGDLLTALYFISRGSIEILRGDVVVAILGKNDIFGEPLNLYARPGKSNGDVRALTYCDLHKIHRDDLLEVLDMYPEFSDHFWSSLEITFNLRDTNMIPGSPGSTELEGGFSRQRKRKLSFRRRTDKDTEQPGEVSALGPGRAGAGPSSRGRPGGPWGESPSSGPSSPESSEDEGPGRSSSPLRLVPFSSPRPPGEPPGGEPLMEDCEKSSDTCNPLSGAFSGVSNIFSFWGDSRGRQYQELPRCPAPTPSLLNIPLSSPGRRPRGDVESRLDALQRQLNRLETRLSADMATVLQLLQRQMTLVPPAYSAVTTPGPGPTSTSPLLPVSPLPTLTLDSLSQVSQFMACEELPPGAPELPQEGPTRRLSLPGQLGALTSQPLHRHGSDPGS

Compared with `Cc1ccc(C)c(OCC(=O)NCCN(C)C)c1.Cl`, `CC(=O)c1sc(NC(=O)COc2ccc(C(C)C)c(C)c2)nc1C` is lower in “hERG current change (%, negative = inhibition) at 10uM” value: 15% for the first, 10.9% for the second.

Compared with `CCOC(=O)N1CCN(C(=O)Nc2ccc(Cl)cc2)CC1`, `COc1ccc(CC(=O)N2CCN(c3cccc(Cl)c3)CC2)cc1OC` is higher in “hERG current change (%, negative = inhibition) at 10uM” value: -11.4% for the first, -7.38% for the second.

First: O=C(O)CC1S/C(=N\N=C2\C(=O)Nc3ccccc32)N(c2ccc(O)cc2)C1=O (stereo not shown)
Second: O=C(Nc1ccc2c(c1)C(=O)N(c1ccccc1)C2=O)c1cccs1
The “hERG current change (%, negative = inhibition) at 10uM” value of the first is lower: -53.7% for the first, 4.93% for the second.

First: Cc1ccccc1N(CC(=O)NCc1ccncc1)S(C)(=O)=O
Second: Cc1ccc(S(=O)(=O)NCCC(=O)Nc2ccncc2)cc1C
The “hERG current change (%, negative = inhibition) at 10uM” value of the first is higher: 34.9% for the first, -20.1% for the second.

First: CN1C(=O)N(CC(=O)N2CCN(S(=O)(=O)/C=C/c3ccccc3)CC2)C(=O)C12CCCCC2
Second: O=C1CCCCN1CC(=O)N1CCCC(N2CCN(c3ccccc3F)CC2)C1 (stereo not shown)
The “hERG current change (%, negative = inhibition) at 10uM” value of the first is lower: -9.37% for the first, 3.7% for the second.

Going from `Cc1ccc(SCC(=O)N2CC(C)OC(C)C2)cc1` (stereo not shown) to `Cc1ccc(C(=O)NC(=S)N2CCN(c3cc(C)ccc3C)CC2)cc1`, the “hERG current change (%, negative = inhibition) at 10uM” value rises from 6.92% to 8.35%.

Going from `CC[C@@]12C(=O)N(c3ccc(C)cc3)C(=O)N1[C@H](c1ccc(Br)cc1)[C@@H]1C(=O)N(C(C)(C)C)C(=O)[C@@H]12` to `Cc1ccccc1-c1ccc(C=Nc2c(C)n(C)n(-c3ccccc3)c2=O)o1`, the “hERG current change (%, negative = inhibition) at 10uM” value falls from -8.14% to -24.3%.

Going from `COC(=O)c1c(NC(=O)Cc2cccs2)sc2c1CCCC2` to `NC(=O)c1ccccc1N/C=C1\CCCCC1=O`, the “hERG current change (%, negative = inhibition) at 10uM” value rises from 2.72% to 3.06%.

Compared with `OCCSc1nnc(Nc2ccccc2)s1`, `OCc1cn(-c2ccccc2)nn1` is higher in “hERG current change (%, negative = inhibition) at 10uM” value: 4.74% for the first, 19.2% for the second.

Going from `COc1ccccc1/C=C(/C(=O)OCC(=O)N(C)Cc1ccccc1)c1ccccc1` to `COc1ccc(Cl)cc1C(=O)NCC(=O)OCc1ccccc1`, the “hERG current change (%, negative = inhibition) at 10uM” value falls from 10.7% to -36.4%.

Compared with `Cn1nc(-c2ccc(OCC(=O)N3CCN(Cc4ccccc4)CC3)cc2)c2ccccc2c1=O`, `O=C(Nc1c(-c2ccccc2)nc2ccccn12)c1ccccc1F` is higher in “hERG current change (%, negative = inhibition) at 10uM” value: -44.4% for the first, -3.02% for the second.

First: CCOc1ccc(NC(=O)CCC(=O)NNC(=O)c2ccc(Br)o2)cc1
Second: CCCCc1ccc(NC(=O)COc2ccc(C(=O)Nc3ccccc3OC)cc2)cc1
The “hERG current change (%, negative = inhibition) at 10uM” value of the first is lower: 4.62% for the first, 12.6% for the second.

First: COc1ccc(N=C2NC(=O)/C(=C/c3ccc(O)c(OC)c3)S2)cc1
Second: COc1ccc(NC(=O)C2C(=O)N(C)C3(C)CC2c2ccccc2O3)cc1 (stereo not shown)
The “hERG current change (%, negative = inhibition) at 10uM” value of the first is higher: 7.28% for the first, -13.5% for the second.

First: CO/N=C/C(C#N)=C/c1cc(C(=O)c2ccccc2)cn1C
Second: Cc1ccc(-c2nn(-c3ccccc3)cc2C(N)=O)o1
The “hERG current change (%, negative = inhibition) at 10uM” value of the first is higher: 18.4% for the first, -13.1% for the second.

Going from `CC/C(=N\Nc1ccccc1)c1c(O)[nH]c(=O)[nH]c1=O` to `C/C(=C\c1ccc(Cl)cc1)C(=O)c1c(C)cc(C)[nH]c1=O`, the “hERG current change (%, negative = inhibition) at 10uM” value falls from 24.2% to 9.59%.

Going from `Cc1ccc2cc3cc(C(=O)NCc4ccco4)oc3nc2c1` to `Cc1ccc2nc(SCC(=O)c3c[nH]c4ccccc34)[nH]c2c1`, the “hERG current change (%, negative = inhibition) at 10uM” value rises from -1.21% to 32.5%.

Compared with `CCOc1ccc(-c2cc(C)[n+](CCO)c(-c3ccc(OCC)cc3)c2)cc1.[O-][Cl+3]([O-])([O-])[O-]`, `COC(=O)c1ccc(OC)c(CSc2nnc(COc3cccc(C)c3)o2)c1` is higher in “hERG current change (%, negative = inhibition) at 10uM” value: -62.6% for the first, -11% for the second.

Compared with `NC(=O)CSC1=Nc2ccccc2C2=NC(CC(=O)NCc3cccs3)C(=O)N12` (stereo not shown), `CCOC(=O)CNC(=O)CSc1nnc(Cn2c(=O)sc3ccccc32)n1C` is lower in “hERG current change (%, negative = inhibition) at 10uM” value: 11.2% for the first, 9.42% for the second.

Going from `O=C(Nc1ccc(F)c(Cl)c1)NC1CC1` to `O=C(CN1CCN(c2ccccn2)CC1)Nc1cccc(Cl)c1Cl`, the “hERG current change (%, negative = inhibition) at 10uM” value falls from 13.7% to -11.1%.

Compared with `COc1ccc(CCN(C)C(=O)Cn2c(=O)oc3ccccc32)cc1OC`, `COc1ccc(OC)c2[nH]c(=O)c(CCNC(C)=O)cc12` is higher in “hERG current change (%, negative = inhibition) at 10uM” value: -13.3% for the first, 3.58% for the second.

First: CC1Cc2ccccc2N1C(=O)CCn1cccn1 (stereo not shown)
Second: Cn1c(SCC(=O)Nc2ccccc2C(F)(F)F)nc2c(c1=O)SCC2
The “hERG current change (%, negative = inhibition) at 10uM” value of the first is higher: -1.73% for the first, -57% for the second.

First: C=CCn1c(=O)c(C=Nc2cccc([N+](=O)[O-])c2)c(O)n(CCCC)c1=O
Second: COCc1c(C(=O)OCC(=O)c2c(N)n(CC(C)C)c(=O)n(C)c2=O)oc2ccccc12
The “hERG current change (%, negative = inhibition) at 10uM” value of the first is lower: -55% for the first, -11.1% for the second.

Going from `Cc1ccc(O)c(C2=NOC(O)(C(F)(F)C(F)F)C2)c1` (stereo not shown) to `COc1cccc(C(=O)OC2CCCN(C)C2)c1.Cl` (stereo not shown), the “hERG current change (%, negative = inhibition) at 10uM” value falls from -8.38% to -10.9%.

Going from `Cc1n[nH]c(=O)c2c(NC(=O)CSc3ncccn3)oc(C)c12` to `Cc1nc(SCC(=O)N2CCC(C(N)=O)CC2)n[nH]1`, the “hERG current change (%, negative = inhibition) at 10uM” value rises from 7.18% to 20.4%.

First: CSc1ccc(S(=O)(=O)NCC(=O)OCC(=O)N2CCCCC2C)cc1[N+](=O)[O-] (stereo not shown)
Second: CC(=O)Nc1ccc(S(=O)(=O)N(C)CC(=O)OCC(=O)c2ccc3c(c2)NC(=O)CO3)cc1
The “hERG current change (%, negative = inhibition) at 10uM” value of the first is lower: 4.74% for the first, 8.14% for the second.

Going from `CCN(CC)S(=O)(=O)c1cccc(NC(=O)COc2ccc(C#N)cc2OC)c1` to `COc1ccc(C(C(=O)NC(C)(C)C)N(C(=O)CNC(=O)c2cccs2)c2ccc(NC(C)=O)cc2)cc1OC` (stereo not shown), the “hERG current change (%, negative = inhibition) at 10uM” value rises from -72.4% to 10.4%.

First: CCOc1ccc(C2C(C#N)=C(N)N(c3sc4c(c3C#N)CCCC4)C3=C2C(=O)CCC3)cc1 (stereo not shown)
Second: CCOc1ccc(NC(=O)C23CC4CC(C2)CC(c2ccccc2)(C4)C3)cc1
The “hERG current change (%, negative = inhibition) at 10uM” value of the first is lower: -4.76% for the first, 3.53% for the second.

`Cc1cc(N2C(=O)[C@@H]3[C@H](C2=O)[C@@H]2C[C@H]3C(Br)C2Br)no1` (stereo partly shown) was tested, and the “hERG current change (%, negative = inhibition) at 10uM” value was 10.4%.
